Assay results from the supplement of paper PMC3334620.
The full ranking holds about 33,000 sequences; the median of “E-score (-0.5 to 0.5)” is about -0.032, and the highest 2% start at about 0.36. Some of the results follow.

Molecular target: T1, Sko1 (UniProt Q02100)
T1 sequence: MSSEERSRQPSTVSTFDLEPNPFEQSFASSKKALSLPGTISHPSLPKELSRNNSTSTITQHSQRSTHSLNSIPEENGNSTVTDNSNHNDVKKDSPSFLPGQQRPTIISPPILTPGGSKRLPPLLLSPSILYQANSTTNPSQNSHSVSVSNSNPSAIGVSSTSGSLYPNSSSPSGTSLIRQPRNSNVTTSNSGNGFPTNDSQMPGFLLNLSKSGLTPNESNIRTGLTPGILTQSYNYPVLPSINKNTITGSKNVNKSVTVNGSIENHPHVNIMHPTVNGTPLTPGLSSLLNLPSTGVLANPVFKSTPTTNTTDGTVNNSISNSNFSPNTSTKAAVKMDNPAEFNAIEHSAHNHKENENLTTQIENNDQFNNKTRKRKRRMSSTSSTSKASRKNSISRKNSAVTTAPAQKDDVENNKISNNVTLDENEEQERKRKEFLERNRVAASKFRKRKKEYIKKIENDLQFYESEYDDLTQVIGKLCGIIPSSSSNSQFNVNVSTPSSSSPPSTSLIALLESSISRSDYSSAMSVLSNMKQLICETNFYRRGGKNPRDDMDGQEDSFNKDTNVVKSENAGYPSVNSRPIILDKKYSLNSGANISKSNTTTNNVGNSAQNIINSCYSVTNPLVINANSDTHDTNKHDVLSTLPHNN
Test: PBM E-score (8-mer binding enrichment) (E-score (-0.5 to 0.5)); higher = stronger / more preferred TF binding; most listed sequences are background and not binding sites
Settings: protein concentration: 200 nM; construct: GST-full length
Experimental: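 Universal 'all 10-mer' protein binding microarrays (Agilent AMADID 015681) probed with GST-tagged S. cerevisiae TFs (full-length or DBD) made by in vitro transcription/translation (PURExpress), about 100-200 nM. Bound TF was detected with fluorescent anti-GST. Each ungapped 8-mer (which stands for itself and its reverse complement) is scored by the PBM enrichment score (E-score), a modified Wilcoxon-Mann-Whitney statistic from -0.5 to +0.5, computed with the Universal PBM Analysis Suite. Scale: above 0.35 generally sequence-specific binding.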

Sequence	PBM E-score
CCGACCTC	-0.312
TGTGGGAA	-0.00802
CTCAGACA	-0.0764
AATCATTG	0.11
CTTTAGAC	0.0705
GTCTATTA	0.0729
CGTGGTTC	0.0129
CACCCGTG	-0.293
AATTCCCC	-0.198
TCCTGTCA	-0.0412
CTAGGAAG	-0.133
ACTGCCCC	-0.306
AAGTTCGC	0.152
AAGTACAT	0.237
GGAATGAA	0.0115
TCAGTAGA	0.075
AGGCCTAG	-0.108
AACCCTAT	0.0535
AGTTCAAA	0.0351
CAGAATAA	0.2
ATAAATAG	0.163
CTGCAGAC	-0.19
GCATTATA	0.00078
GCTCAATA	-0.0186
CCAGATAC	0.0297

Sequence	PBM E-score
GGTGCGAC	-0.126
CAATCTAC	-0.0423
CTGAGTAC	-0.0323
GCTCGGCA	-0.196
CGTCTAAA	-0.0104
CCGGCATA	-0.155
AACAATGC	0.167
TCTCCACA	-0.0125
CAGAGGCC	-0.216
CACTGCGG	-0.0295
GTATGGAC	0.0458
GCGCACGA	0.0675
GGATATCA	-0.0424
AAGACCCT	-0.143
AAGGACCC	-0.152
ACGAGATA	0.207
GAAAATCC	-0.00172
AACTCCCC	-0.164
TCTACTCA	0.151
CCTATTCA	-0.286
CCGTAATC	0.111
CACTTGGC	-0.0585
CCGTCGTA	0.11
CCTTAGAG	-0.379
CGAACTCG	-0.106

Sequence	PBM E-score
AGGCGATG	-0.143
GAGAGGAC	-0.0889
CCTCAGCA	-0.301
ACTCGCAG	-0.203
GAACTGTC	-0.209
TTATAAAA	0.212
AACTCCCA	-0.227
ACACCTTG	0.00022
AGGCCTAA	-0.0496
ATAATATG	0.221
CCCCTGTC	-0.35
CCGTTTTC	0.0601
ACCTTGTA	0.0904
GATCCCTA	-0.212
GTCGGTGA	0.049
CACGAAAA	0.222
CAAAACTA	0.121
AAGCTGCC	-0.177
AATCCTCA	-0.012
GGATCGAA	-0.0912
AAATAGCG	0.0959
CAACCGTA	0.0183
CGCTATCA	-0.0117
GACGCACC	0.203
CCGAGAAC	-0.0868

Sequence	PBM E-score
ACGCTGCA	0.066
AAGCTCAT	-0.0568
CCTCACCC	-0.148
GCTCTCAC	-0.236
AGGATCCA	-0.155
AACCTCTT	-0.0138
AACGCTAC	0.0935
GCAAATCA	0.108
ATATCGTC	0.316
AAGTCCGC	-0.223
CTCCGCTA	-0.292
CGCCTGCC	-0.299
GCTACCGA	-0.122
ACAGAACG	-0.0253
AGGTCCGG	-0.203
GAAAGTTC	-0.0105
GATCGAAA	-0.0275
AAGAGTTC	-0.199
GAAGATTC	-0.0232
TCCTTCGA	-0.0512
ATAAGGTA	-0.00808
CCGCCTAA	-0.188
GCTGCCGA	-0.321
GTACTCTA	0.0677
CTTTCGCC	-0.178

Sequence	PBM E-score
GAACACTC	-0.0501
ACAACGCT	0.0194
AGTAGGTA	0.0816
AGACAAGA	0.0367
TAACACAA	0.133
CGGTAGAC	-0.0418
AATTGCGA	0.0547
AACGTCCT	0.0619
AATATCAA	0.0394
AGCTTGGA	-0.316
ACAGGTCC	-0.357
AGATCTTC	-0.00945
ATTGCTGA	0.104
GATAGAAC	0.166
ATCCGGAC	-0.118
CTCGAGCC	0.0866
AAGAACGC	0.0981
ATTGGTTG	-0.0115
CTGTAATA	0.042
ATAAAAAT	0.188
CCCGGGGA	-0.257
CCCCATTA	-0.211
ATTTACAC	0.132
GAATGTAC	0.0361
CCGGCCAG	-0.158

Sequence	PBM E-score
GGATCAAC	0.0572
CAATGTAC	-0.0145
ATACTAGC	-0.0465
GATGACTA	0.0669
ATTAGGAA	0.0293
AACGTTAA	0.243
AGCGGACT	-0.273
CGGCTAAC	-0.0414
GATTTCCC	-0.0614
GATTGCAC	0.0147
CGAATTGA	0.079
TGTGAAAA	0.12
ACATATAG	0.121
AAGGAACT	-0.262
CTCCACCC	-0.261
GATAGATA	0.108
GATCAGGA	-0.275
AAGATGGT	0.00653
ACAGGACT	-0.0484
ACGTAAAG	0.461
CCTCTGCG	-0.251
AGTATTGA	0.16
AAACGACA	0.217
ACGCGTCG	0.237
CGATTTTC	0.23

Sequence	PBM E-score
CGCGTGTA	0.227
TCTGTACA	0.0232
CCTAGTCC	-0.26
AGATCTGA	-0.0388
AAGGCGGG	-0.098
CTCAGCCC	-0.249
GTCGCTCA	-0.0393
TCCATCCA	-0.18
TCCTTCAA	-0.0364
ACGATGTG	0.135
CATTCTCC	0.00192
AGCTACGA	0.06
GACTAGTA	-0.0126
ACTATTTC	0.0893
ACCCCCCG	-0.306
ACAAGCTC	-0.224
CGAAGGAC	-0.158
GGCCAGCC	-0.217
CACTGTCG	-0.11
AATCAGAA	0.0831
AATTTGAG	-0.00828
ATCTCCAT	-0.125
GGACTGAC	-0.139
ATTTATTA	0.25
TTTGAAAA	0.254

Sequence	PBM E-score
TGGACAAA	0.00772
CCACTGAC	-0.031
CGTTGCAC	0.11
GATATCAC	0.145
CCGTTTCG	-0.17
CGCACCGA	0.06
AATTCGAC	-0.287
ACAGTTCG	-0.014
AGAGCGTA	-0.00503
CTTGTGCA	-0.154
ACCCTACC	-0.126
TACGATGA	0.326
CCTGTAGC	-0.288
GCCTTAAC	-0.145
CTCTGGGC	-0.164
AGGGGTAA	-0.118
CGAGGCGC	-0.192
AACACCGG	-0.092
AACCGGGG	-0.131
GACGCGCA	0.106
AATGACGC	0.478
AGTGAGCA	0.00764
ATCGAGAG	-0.0574
CGACGCGC	-0.0314
TATCATAA	0.201

Sequence	PBM E-score
CGAACCGC	0.0504
GCGCACAC	-0.133
CGCAACGC	0.083
ACAGTTTA	0.0292
GGGGATAC	-0.115
CAAGTCAC	0.0504
GAGCACCC	-0.333
CAGATTTC	-0.0944
CGGATTAC	0.193
CCTAGAGC	-0.38
CACGCCTA	0.0673
GGCTTTCA	0.055
GTTTCACA	0.147
CGTTGGAG	0.0224
GCCGCCCA	-0.211
GACTGCCA	-0.0422
ACGTGCCC	0.34
ACGCACAA	0.262
AGTCAAAG	-0.026
AATGAAGG	-0.0596
CCTCGATA	0.00048
GCTTCCTA	0.0147
AACAAACG	0.186
AGTCTGGA	-0.153
TCTCTACA	0.00601

Sequence	PBM E-score
GCGGTCCC	-0.234
ATGAAAGC	0.13
TTAGGGAA	-0.0461
CAGAGAAC	0.00541
AGGCACGA	0.0425
ATAACGTC	0.425
GCTTGAAA	0.0634
GCGCTTCC	-0.0663
GGCAGACA	-0.18
GCCCCAAA	-0.197
TCGCTTCA	-0.13
CTTTGTCA	0.0775
ACCGCAAG	0.0178
AGGAATGG	0.003
GATCATAC	0.14
AGACTTCC	-0.329
CGACCTAG	-0.00293
AATACACC	0.0896
ATACAAGC	-0.0788
CGACTGGC	-0.248
ACATGTGA	0.198
CTGTTGAC	0.0361
CAGGGTGG	-0.3
ACTTTATA	0.151
CAAAATAA	0.122

Sequence	PBM E-score
AGATACGC	0.264
ACGTCCTC	0.206
GATGACCA	0.0721
ATTCTACC	0.00672
CACATATC	0.0388
ATCTGAGA	-0.0991
ATTGACTC	-0.0271
ATGTTCGA	0.0746
GTCAGGGA	-0.102
AGCATAAC	0.0904
GCTCGGTA	-0.129
TACGGATA	0.137
ATAAACAT	0.233
GAATTGGC	-0.128
GTATGCAA	0.177
AACCGGTA	-0.0378
ACCGTGTA	0.0645
CAATCCAC	-0.0544
TAAGCTGA	-0.0396
CTGAAGAA	-0.213
CTCACCAC	-0.0734
TAACCTAA	0.166
TCATATAA	0.187
ATCGAATA	-0.0264
AGCTGCCT	-0.263

Sequence	PBM E-score
TAAATTCA	0.176
CCACCAGA	-0.082
GTACATCA	0.366
CTCTAGAA	-0.157
GGGAGAGA	-0.331
CCTTGGGC	-0.311
AGCTTTAG	0.0249
GGGCACAA	-0.303
ACGGTCCG	-0.185
GTCGAAGA	0.0177
CGTAGACG	0.278
CGACGTAC	0.412
GCGTGTAA	0.0982
AACAACTC	-0.0934
CGCCCTAC	-0.113
ATATGAGA	-0.0796
CCCATTAG	-0.254
ACTAATTG	0.00529
GAACGTGC	-0.0481
ACGTCGAG	0.254
GAGAGTGC	0.0123
CGTGCAAA	0.166
GGCAAACA	0.159
CCAGATCC	-0.342
CGACTGCA	-0.0683

Sequence	PBM E-score
AACCGACT	-0.131
AACAAACC	0.0553
AGTGACTA	-0.0228
ACAGATGC	-0.0202
CTCAAGAC	-0.0102
ACCTATAG	-0.0953
AGGCCATG	-0.078
GCAAAAAC	0.0349
CCTCATAC	0.195
TCAGTAAA	0.225
CTCACCCC	-0.198
GTTAACTA	0.119
CGCCGCGA	-0.0222
CGTCCCAA	-0.0678
CATCTCCC	-0.332
ATGAAAAT	0.195
ATGGCCAC	-0.0519
TAAGAGGA	-0.0658
CAGTTCAG	-0.112
AAAATTAC	0.266
AAGGCGAG	-0.282
GTTGAAAA	-0.037
CCGTCTAA	-0.207
CTGTAAGA	-0.00039
ACGGCACA	-0.172

Sequence	PBM E-score
AACGGACT	-0.156
GTTTATTA	0.345
ACATCCAA	0.128
GTCCTCCA	-0.134
ATCGGAAG	0.138
TAATAGTA	0.175
CCTAGGAG	-0.18
GGGCGGAA	-0.264
CCGATCAA	-0.169
GGATGAAC	-0.0118
GTCGGCCA	-0.0498
CCCTAAAA	-0.0699
ACCAAGCG	-0.138
CCCCCCAC	-0.372
TACATGTA	0.177
CCAGACTA	-0.21
CCAATTAG	0.105
ATGGGACC	-0.0278
CTCGGGAA	-0.14
